Reference: the supplement of paper PMC4206461
The other results are listed elsewhere or left out.

System: Pseudomonas aeruginosa PA14 dppA1-A5 penta deletion mutant
Assay: respiration area under curve with compound as sole nitrogen source, 24 h (OmniLog AUC (arbitrary units)); higher = more respiration / better utilisation as nitrogen source, active = 2000 or more; extreme values may be limits of the assay
Conditions: plate: PM6
Method: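 Biolog Phenotype MicroArray plates PM6-PM8: each di/tripeptide is the sole nitrogen source. Tetrazolium reduction was read in the OmniLog for 24 h at 37°C and summarised as area under the respiration curve (arbitrary units). Values below 2000 count as no respiration.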

SMILES	respiration area under curve
CSCCC(NC(=O)C(N)CC(C)C)C(=O)O (stereo not given)	inactive: 1800
CC(C)[C@H](NC(=O)[C@@H](N)CCCN=C(N)N)C(=O)O	active: 8810
C[C@H](N)C(=O)N[C@@H](C)C(=O)O	active: 6930
CC(C)C[C@H](NC(=O)CN)C(=O)O	inactive: 0
CC(C)C[C@H](N)C(=O)N[C@@H](Cc1ccccc1)C(=O)O	active: 5660
CC(C)C[C@H](N)C(=O)N[C@@H](C)C(=O)O	active: 8940
NC(N)=NCCC[C@H](NC(=O)[C@@H](N)CCCN=C(N)N)C(=O)O	active: 10100
CC[C@H](C)[C@H](N)C(=O)N[C@@H](Cc1ccccc1)C(=O)O	inactive: 1100
CC[C@H](C)[C@H](N)C(=O)N[C@@H](CCC(N)=O)C(=O)O	inactive: 1530
CC[C@H](C)[C@H](NC(=O)[C@@H](N)CC(C)C)C(=O)O	active: 5380
N[C@@H](CC(=O)O)C(=O)N[C@@H](CCC(=O)O)C(=O)O	inactive: 11.9
C[C@H](N)C(=O)N[C@@H](CC(N)=O)C(=O)O	active: 7210
NC(N)=NCCC[C@H](N)C(=O)N[C@@H](Cc1c[nH]c2ccccc12)C(=O)O	active: 9000
NC(N)=NCCC[C@H](N)C(=O)N[C@@H](Cc1ccc(O)cc1)C(=O)O	active: 9880

Same assay, conditions: plate: PM7

SMILES	respiration area under curve
O=C(O)[C@H](Cc1ccc(O)cc1)NC(=O)[C@@H]1CCCN1	active: 10100
CC[C@H](C)[C@H](NC(=O)[C@@H](N)Cc1ccccc1)C(=O)O	active: 8280
CC(C)C[C@H](NC(=O)[C@@H]1CCCN1)C(=O)O	inactive: 1330
CC(C)[C@H](N)C(=O)N[C@@H](CC(=O)O)C(=O)O	inactive: 536
N[C@@H](CO)C(=O)N[C@@H](CO)C(=O)O	inactive: 1960
N[C@@H](Cc1c[nH]c2ccccc12)C(=O)N[C@@H](Cc1ccc(O)cc1)C(=O)O	inactive: 746
N[C@@H](CO)C(=O)N1CCC[C@H]1C(=O)O	inactive: 0
C[C@H](NC(=O)[C@@H](N)[C@@H](C)O)C(=O)O	active: 4340
CSCC[C@H](N)C(=O)N[C@@H](CCC(=O)O)C(=O)O	inactive: 44.1
N[C@@H](Cc1c[nH]c2ccccc12)C(=O)N[C@@H](CCC(=O)O)C(=O)O	inactive: 110
C[C@@H](O)[C@H](N)C(=O)N[C@@H](CCC(=O)O)C(=O)O	inactive: 2.14
CC(C)C[C@H](NC(=O)[C@@H](N)C(C)C)C(=O)O	active: 6420
O=C(O)[C@@H]1C[C@@H](O)CN1C(=O)[C@@H]1CCCN1	inactive: 0
C[C@H](NC(=O)[C@@H](N)Cc1c[nH]c2ccccc12)C(=O)O	active: 2340

Same assay, conditions: plate: PM8

SMILES	respiration area under curve
CC(C)C[C@H](NC(=O)[C@@H](C)N)C(=O)O	inactive: 0
C[C@@H](O)[C@H](N)C(=O)N[C@@H](Cc1ccccc1)C(=O)O	inactive: 955
NCC(=O)NCC(=O)N[C@@H](Cc1ccccc1)C(=O)O	inactive: 1
C[C@@H](NC(=O)CN)C(=O)O	inactive: 0
O=C(O)CC[C@H](NC(=O)[C@@H]1CCCN1)C(=O)O	inactive: 0
NC(=O)C[C@H](NC(=O)[C@@H]1CCCN1)C(=O)O	active: 6320
CC[C@H](C)[C@H](NC(=O)CN)C(=O)O	inactive: 1870
CC(C)[C@@H](NC(=O)CN)C(=O)O	inactive: 0
NC(=O)C[C@H](NC(=O)[C@@H](N)CO)C(=O)O	active: 10500
CC(C)[C@H](N)C(=O)N[C@@H](Cc1ccccc1)C(=O)O	active: 4120
NC(=O)CC[C@H](NC(=O)[C@@H](N)CO)C(=O)O	inactive: 1400
CSCC[C@H](NC(=O)[C@@H](N)Cc1ccccc1)C(=O)O	inactive: 236
